Source: PubChem BioAssay (NCI)
Where “and” joins values, the source holds several entries; their conditions need not be identical. Equal values may be shown once.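 Cultured in 96-well plates, cells were exposed to test compound for 48 hours across five concentrations. GI50 is the concentration that inhibits growth by half. TGI denotes the concentration required for complete inhibition of growth.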

Each compound was assayed on NCI-H322M lung (assay: NCI tumour cell line growth inhibition, 48 h).

Row | SMILES | GI50 | TGI
1 | COc1ccc(Cn2cc3c(c2-c2ccc(O)cc2)CCc2cnoc2-3)cc1 | 0.498 µM | 19.9 µM
2 | CCOC(=O)NC(NNc1ccc([N+](=O)[O-])cc1[N+](=O)[O-])(C(F)(F)F)C(F)(F)F |  | > 100 µM
3 | O=C1CCCC(=O)C1=C(O)CCCCCCCCCCc1ccccc1 |  | > 100 µM
4 | Cn1ccnc1C(=O)/C=C/c1ccc(C(=O)Nc2ccccc2O)cc1 | 2.32 µM | 8.43 µM
5 | COc1ccc2c(c1)C(=O)/C(=C/c1ccc([N+](=O)[O-])s1)O2 | 2.53 µM | > 25 µM
6 | Cc1cc(O)ccc1O | 37.6 µM | > 100 µM
7 | C[N+](C)(C)C1(C(=O)[O-])CC1 |  | > 100 µM
8 | NC1=NN(c2ccccc2)C2(c3ccncc3C(=O)O)C1C(N)=NN2c1ccccc1 (stereo unspecified) |  | > 100 µM
9 | COc1cc2c(oc(=O)c3cc4ccoc4c(OC)c32)c2cccc(O)c12 |  | > 100 µM
10 | COc1ccc(N2CCN(Cc3c(C(C)=O)[n+](=O)c4ccccc4n3[O-])CC2)cc1 |  | > 100 µM
11 | CC(=O)O[C@H]1CC[C@H]2[C@@H]3CCC4=C(C(=O)C=CC4(C)OC(C)=O)[C@H]3CC[C@]12C (stereo partly specified) |  | > 100 µM
12 | COc1ccc2c[n+](C)c3c4cc(OC)c(OC)cc4ccc3c2c1 |  | 31.4 µM
13 | COc1ccc(CC2NCCc3cc(OC)c(OC)cc32)cc1 (stereo unspecified) |  | > 100 µM
14 | COP(=O)(OC)C(O)/C=C(\Cl)c1ccc(Cl)cc1 (stereo unspecified) |  | > 100 µM
15 | CCCCCCCCCCCCCCCCOC(=O)c1c(C)[nH]c(/C=C2\N=C(c3ccc[nH]3)C=C2OC)c1C | 5.86 µM | 54.8 µM
16 | CCCC(=O)Nc1cc([N+](=O)[O-])c([N+](=O)[O-])cc1OC |  | 25.7 µM
17 | COc1ccc(C(=O)/C=C/c2ccc(OCC(=O)O)cc2)cc1 |  | > 100 µM
18 | CC1CC(=O)C(CC(=O)O)C1C(C(=O)C(=O)Nc1c(C#N)cccc1[N+](=O)[O-])[N+](=O)[O-] (stereo unspecified) |  | > 100 µM
19 | CC(=O)Nc1ccc2c(c1)C(=O)c1cccc(F)c1-2 |  | > 100 µM
20 | O=C(O)/C=C/c1cnc[nH]1 |  | > 500 µM
21 | COc1ccc2c(c1)O[C@H]1c3ccc(O)cc3OC[C@@H]21 |  | > 100 µM
22 | O=C1SC(c2ccccc2)(c2ccccc2)c2ccccc21 |  | > 100 µM
23 | O=C(Nc1cccc([N+](=O)[O-])c1)c1ccc2ccccc2c1O | 2.95 µM | 8.93 µM
24 | COc1cc(OC)c2cc(C(=O)O)c(=O)oc2c1 | > 100 µM | > 100 µM

Row | SMILES | GI50 | TGI
25 | O=C1OC2c3ccccc3C(=O)C2(c2ccccc2)N1c1ccccc1 (stereo unspecified) |  | > 200 µM
26 | N#CCC12CC=CCC1=C(O)C(=O)c1ccc(O)cc12 (stereo unspecified) |  | > 100 µM
27 | CC(=O)[O-].CC(=O)[O-].O=C(N/N=C/c1cc(Cl)cc(Cl)c1[OH2+])c1ccncc1.[Zn+2] |  | > 100 µM
28 | Nc1ccc(C(=O)NN2C(=O)C(Cl)C2c2ccc([N+](=O)[O-])cc2)cc1 (stereo unspecified) |  | 26.8 µM
29 | COc1cc(C=Nc2ccc(S(N)(=O)=O)cc2)cc(OC)c1 |  | > 50 µM
30 | Cc1nc2c(n1CCC(C)C)C(=O)c1ccccc1C2=O |  | > 100 µM
31 | CC(=O)O[C@H]1[C@@H](OC2CCCC2(c2ccccc2)c2ccccc2)O[N+]([O-])=C[C@@]12COCc1cc3c(cc12)OCO3 (stereo partly specified) |  | 34.7 µM
32 | CCCCCCCCCCCCSC(=NC)NC | 3.34 µM | 12.5 µM
33 | Oc1ccc2ccccc2c1C(c1ccc(Cl)cc1)c1c(O)ccc2ccccc12 |  | 6.93 µM
34 | Cc1ccc(NC(=O)COC(=O)c2cccc3c(=O)c4ccccc4[nH]c23)cc1 |  | > 100 µM
35 | NC(CCCNc1cccc(O)c1)C(=O)O (stereo unspecified) |  | > 100 µM
36 | BrCCC[P+](c1ccccc1)(c1ccccc1)c1ccccc1 |  | > 100 µM
37 | CC1(C)N=C(N)N=C(N)N1c1ccc(OCC(=O)N2CCOCC2)c(Cl)c1 | 0.721 µM | > 100 µM
38 | O=C(Nc1ccccc1)Nn1c(-c2cccs2)nc2ccc(I)cc2c1=O |  | 64.9 µM
39 | COCOCc1cc(OCc2ccccc2)c(OC)cc1Br |  | > 100 µM
40 | CN(C)c1ccc(/C=C/c2ccnc3ccccc23)cc1N |  | 35.2 µM
41 | CCn1c(-c2ccccc2)nc2c1C(=O)c1ccccc1C2=O |  | > 100 µM
42 | COc1ccc2cc3[n+](cc2c1OC)CCc1cc2c(cc1-3)OCO2 |  | > 100 µM and 217 µM
43 | C#C[C@@]1(O)CCCC2=CC(=O)C[C@]21C |  | > 100 µM
44 | C=CCOC(=O)CCCCCCCCCCCCCCCOC(=O)c1c(CCC[C@@H](C)O[Si](C)(C)C(C)(C)C)nc(=O)n2c1CC[C@H]2CC1(CC/C=C\[C@H](CC)O[Si](C(C)C)(C(C)C)C(C)C)OCCO1 |  | > 100 µM
45 | CC(C)/C(Cl)=N\OC(=O)Nc1ccc(F)c([N+](=O)[O-])c1 |  | 26.7 µM
46 | Cc1cc(Cl)ccc1NC(=O)CC1SC(N)=NC1=O (stereo unspecified) |  | > 100 µM
47 | COCC(=O)OC1CCn2c1nc1c2C(=O)C(C)=C(NC(C)=O)C1=N (stereo unspecified) |  | 29.3 µM
48 | COC(=O)c1cc2c3ccccc3n3c(=O)c4cc5cc(OC)c(N(S(=O)(=O)c6ccc(C)cc6)S(=O)(=O)c6ccc(C)cc6)cc5nc4c(n1)c23 | > 100 µM | > 100 µM

Row | SMILES | GI50 | TGI
49 | CCOP(=O)(OCC)/C(C#N)=C/c1ccc[nH]1 |  | > 100 µM
50 | Cc1ccc(/C=C/C(=O)c2ccc(N)cc2)c(C)c1 | 16.2 µM | 33 µM
51 | Nc1nc(Cl)c(N=Nc2ccc(Cl)cc2)c(NCC2(CO)CC(OCc3ccccc3)C2)n1 (stereo unspecified) | 30.3 µM and > 100 µM and 21.2 µM | > 100 µM and 63.2 µM
52 | Cc1ccc(NSc2ccccc2[N+](=O)[O-])cc1 | 1.56 µM | 22.3 µM
53 | Cc1nc(N)sc1N=Nc1cc(Cl)c([N+](=O)[O-])cc1Cl |  | 41.8 µM
54 | O=c1[nH]c(=O)n(C2CC(O)C(CO)O2)cc1C#Cc1cc(C(F)(F)F)cc(C(F)(F)F)c1 (stereo unspecified) |  | > 100 µM
55 | N#Cc1c(-c2ccc(Cl)cc2)c(-c2ccc(Cl)cc2)nn(CCOC(=O)CCC(=O)O)c1=O |  | 62.1 µM
56 | COc1ccc(/C(=N\O)c2cc(OC)c(OC)c(OC)c2)c(OC)c1N | 5.96 µM | > 100 µM
57 | O=C1/C(=C/c2ccc([N+](=O)[O-])o2)Oc2ccccc21 | 11.6 µM | 24.6 µM
58 | c1cc2cc(c1)CN1CCNCCN(CCNCC1)Cc1cccc(c1)CN1CCNCCN(CCNCC1)C2 |  | > 100 µM
59 | CC(C)=CC(O)C/C(C)=C/CC/C(C)=C/CCC1(C)C(CCCO)/C(=C(/C)C=O)CCC1(C)O (stereo unspecified) |  | > 100 µM
60 | COC(=O)c1cc(-c2ccc(-c3ccc(O)cc3)cc2)cc(-c2ccc(-c3ccc(O)cc3)cc2)c1 |  | 25.7 µM
61 | COc1cc(C(=O)N2CCN(c3ccccc3OC)CC2)c(N)cc1OCc1ccccc1 | 31.7 µM | > 100 µM
62 | Oc1ccccc1Nc1nc2ccccc2c2occc12 | 0.49 µM | 6.48 µM
63 | CC1C=CC(C)C2(O)C(=O)NC(O)C12 (stereo unspecified) |  | > 100 µM
64 | c1ccc2c(Nc3ccc(Oc4ccc(Nc5c6ccccc6nc6ccccc56)cc4)cc3)c3ccccc3nc2c1 | 0.194 µM and 0.249 µM | 0.394 µM and 0.736 µM
65 | O=C(Nc1cccnc1)c1cccc([N+](=O)[O-])c1 | > 100 µM | > 100 µM
66 | CCN(CC)CCNc1ccc2ncn3c4c(OC)cccc4c(=O)c1c23 |  | 20.2 µM
67 | CCC[CH2][Sn]1([CH2]CCC)[O]C(=O)c2cccc(OC)c2[O]1 | 1.18 µM | 2.41 µM
68 | CS(=O)(=O)Nc1cccc(-c2ccc3c(NC(=O)C4CC4)n[nH]c3c2)c1 | > 25 µM | > 25 µM
69 | COc1ccc(NC(=O)COC(=O)c2cccc3c(=O)c4ccccc4[nH]c23)cc1 |  | 97.9 µM
70 | CN(C)CCCNC(=O)c1cc(NC(=O)c2cc(NC(=O)[C@H]3C[C@@H]3C(=O)Nc3cc(C(=O)Nc4cc(C(=O)NCCCN(C)C)n(C)c4)n(C)c3)cn2C)cn1C |  | > 100 µM
71 | C/C1=C\CC[C@@]2(C)O[C@@H]2C[C@@H]2[C@H](C/C(C)=C/CC1)OC(=O)C21CCN=N1 (stereo partly specified) | > 100 µM | > 100 µM
72 | Cn1c(=O)c2c(ncn2CCSS(=O)(=O)O)n(C)c1=O |  | > 100 µM

Row | SMILES | GI50 | TGI
73 | O=C(O)C(Cc1cnc[nH]1)N=Cc1nc(-c2ccccc2)oc1O (stereo unspecified) |  | > 100 µM
74 | Cc1ccc(-c2nc3c(C(=O)NCCN(C)C)cccc3[nH]2)cc1 |  | 47 µM
75 | COc1ccc(N=Nc2c(C)c(C#N)c(=S)n(C3OC(COC(C)=O)C(OC(C)=O)C(OC(C)=O)C3OC(C)=O)c2-c2ccccc2)cc1 (stereo unspecified) |  | 25.6 µM
76 | O=C1c2cccc3cccc(c23)C(=O)N1CCCCN1CCN(CCCCOc2ccc(-c3nc4ccc(N5CCOCC5)cc4[nH]3)cc2)CC1 | > 100 µM | > 100 µM
77 | O=C(Nc1ccc([N+](=O)[O-])cc1C(=O)O)c1ccc([N+](=O)[O-])cc1 |  | > 100 µM
78 | O=c1c[n+](-c2ccccc2)[nH]o1 |  | > 100 µM
79 | O=C1c2ccccc2C(=O)c2c1oc(=O)c1ccccc21 |  | 20 µM
80 | Cn1c(=O)c2[nH]c(C3CC(=O)CC(c4nc5c([nH]4)c(=O)n(C)c(=O)n5C)N3)nc2n(C)c1=O (stereo unspecified) |  | > 100 µM
81 | c1ccc(/N=N\Nc2ccc(-c3nc4ccccc4o3)cc2)nc1 |  | > 100 µM
82 | COc1ccc(N(C)c2nc(Cl)nc3ccn(C)c23)cc1 | < 0.01 µM | > 100 µM
83 | O=C1/C(=C/c2ccc(Cl)cc2)CN(Cc2cn(CCNc3ccnc4cc(Cl)ccc34)nn2)C/C1=C\c1ccc(Cl)cc1 | 0.657 µM | 1.85 µM
84 | O=c1[nH]ccc2nc(-c3ccc(CN4CCC(c5nc(-c6ccccn6)n[nH]5)CC4)cc3)c(-c3ccccc3)cc12 | 25.4 µM | > 100 µM
85 | CCCN1CN(c2ccccc2)C2(CCN(CCCC(=O)c3ccc(F)cc3)CC2)C1=O |  | 20.6 µM
86 | OCCCCn1cc(Cn2ncc3c(SCc4ccccc4)ncnc32)nn1 |  | > 100 µM
87 | O=C1Nc2ccccc2/C1=C/c1cn(C(=O)c2c(Cl)cccc2Cl)c2ccccc12 | 2.91 µM | 17.8 µM
88 | CCSc1nc(N2CCCCC2)c2cn[nH]c2n1 | 67.9 µM | > 100 µM
89 | O=c1oc2cc(O)ccc2cc1-c1nc2ccccc2s1 |  | 74.5 µM
90 | N#Cc1c(NC(=O)c2cccc3ccccc23)sc2c1CCCC2 | 0.162 µM | > 25 µM
91 | O=C1/C(=C/c2ccc(Cl)cc2)N=C(c2ccccc2)N1C1Nc2cc3c(cc2S1)NC(N1C(=O)/C(=C/c2ccc(Cl)cc2)N=C1c1ccccc1)S3 (stereo unspecified) |  | > 100 µM
92 | C[C@@H]1OC(=O)C[C@H]2CC(=O)N(CCC3CN(S(=O)(=O)C(F)(F)F)c4ccc(Cc5ccc6c(c5)C(CCN5C[C@H]7[C@@H](CC(=O)O[C@H]7C)CC5=O)CN6S(=O)(=O)C(F)(F)F)cc43)C[C@@H]21 (stereo partly specified) |  | > 100 µM
93 | CC(=O)O[C@H]1[C@H](OC(C)=O)[C@@H](CN=[N+]=[N-])OCO[C@@H]1CN=[N+]=[N-] |  | > 100 µM
94 | c1ccc2c(c1)CCN1CCc3c([nH]c4ccccc34)C21 (stereo unspecified) |  | > 100 µM
95 | COP(=O)(OC)C(O)/C=C/c1ccco1 (stereo unspecified) |  | > 100 µM
96 | c1ccc2c(-c3nc4ccccc4[nH]3)cccc2c1 | 6.69 µM | 44 µM
